The values that follow come from the supplement of paper PMC10369915.

The list shows a part of the results. Cut-off read from the data, not from the text of the source: active = 3.2 or more and inactive = the rest. The signal is at background level for most entries.

The labels stand for the following.
B1: TTN_Y2112 (peptide)
chain: PECEWYKNGVK
B2: TTN_Y28166 (peptide)
chain: PGVNYYFRVSA
B3: TTN_Y30829 (peptide)
chain: TEGNEYVFRVA
B4: TTN_Y30829_E30825K (peptide)
chain: TKGNEYVFRVA
B5: TTN_Y13423_E13428V (peptide)
chain: AEVIWYKGDEV
B6: TTN_Y31721_V31725I_YF (peptide)
chain: TENAGYFFRIS
B7: TTC21B_Y160 (peptide)
chain: RGKEPYTKKAL
B8: TTN_Y31722 (peptide)
chain: ENAGYYFRVSA
B9: TTLL5_Y542_E543K (peptide)
chain: LHAALYKRKLL
B10: TTN_Y19760 (peptide)
chain: AKIDGYITSYR
B11: TTN_Y19764_T19762I (peptide)
chain: GYIISYREEEQ
B12: TTN_Y22641_L22646P (peptide)
chain: LTDLRYKVSGP
B13: TTN_Y28166_YF (peptide)
chain: PGVNFYFRVSA
B14: TTN_Y21998 (peptide)
chain: DLRGIYQKLVI
B15: TTN_Y22256 (peptide)
chain: TDGIAYEFRVI
B16: TTN_Y25826 (peptide)
chain: TACNPYKPPGP
B17: TTN_Y20078 (peptide)
chain: VRSTEYPCAGL
B18: TTN_Y25928 (peptide)
chain: ACDALYPPGPP
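Note: displayed peptides selected on beads carrying the immobilized SH2 domain, with library peptides lacking any tyrosine serving as negative controls.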

The target in the first assay is SHP2 C-SH2 domain E139D. In words: enrichment score (SH2-bound / input frequency) (ratio); bacterial display of known human phosphotyrosine sites (pTyr-Var adds point mutants) read by sequencing; higher = stronger binding; tyrosines were phosphorylated by kinases first. As to conditions: peptide library: pTyr-Var.
For B1, the enrichment score was inactive: 1.31.

For the molecule B2, the enrichment score was inactive: 1.12.

Turning to B3, the enrichment score was inactive: 0.64.

As for B4, the enrichment score is inactive: 0.601.

Take B5: the enrichment score is inactive: 0.905.

In the case of B6, the enrichment score was inactive: 0.563.

Regarding B7, the enrichment score is inactive: 0.568.

For B8, the enrichment score was inactive: 0.563.

For the molecule B9, the enrichment score is inactive: 0.516.

B10: the enrichment score is inactive: 0.943.

Take B11: the enrichment score was inactive: 0.879.

Take B12: the enrichment score was inactive: 0.403.

For the molecule B13, the enrichment score is inactive: 1.07.

With B14, the enrichment score is inactive: 1.44.

Take B15: the enrichment score was inactive: 0.797.

For B16, the enrichment score was inactive: 0.78.

For the molecule B17, the enrichment score is inactive: 0.77.

As to B18, the enrichment score is inactive: 0.701.

Another assay has as its target SHP2 C-SH2 domain wild-type. The description is as above. The conditions noted are these: peptide library: pTyr-Var.
With B1, the enrichment score was inactive: 1.15.

With B2, the enrichment score is inactive: 1.72.

B3: the enrichment score is inactive: 0.509.

Take B4: the enrichment score is inactive: 0.977.

In the case of B5, the enrichment score is inactive: 1.24.

Regarding B6, the enrichment score is inactive: 0.641.

As to B7, the enrichment score is inactive: 0.61.

B8: the enrichment score was inactive: 0.633.

As for B9, the enrichment score is inactive: 0.526.

Regarding B10, the enrichment score is inactive: 0.883.

Consider B11, for which the enrichment score is inactive: 0.62.

On to B12, for which the enrichment score is inactive: 0.421.

For B13, the enrichment score was inactive: 2.

In the case of B14, the enrichment score was inactive: 1.86.

Take B15: the enrichment score was inactive: 0.899.

In the case of B16, the enrichment score was inactive: 0.807.

Consider B17, for which the enrichment score was inactive: 0.66.

Take B18: the enrichment score is inactive: 0.716.

The target of another assay is SHP2 N-SH2 domain L43F. The description is as above. As to conditions: peptide library: pTyr-Var.
As to B1, the enrichment score was inactive: 1.51.

Take B2: the enrichment score is inactive: 0.907.

For B3, the enrichment score is inactive: 0.511.

For the molecule B4, the enrichment score was inactive: 0.624.

On to B5, for which the enrichment score was inactive: 1.08.

For B6, the enrichment score is inactive: 0.656.

On to B7, for which the enrichment score is inactive: 0.588.

Turning to B8, the enrichment score was inactive: 0.672.

For the molecule B9, the enrichment score was inactive: 0.434.

Turning to B10, the enrichment score is inactive: 1.03.

With B11, the enrichment score was inactive: 0.543.

As for B12, the enrichment score was inactive: 0.626.

For B13, the enrichment score was inactive: 1.27.

With B14, the enrichment score is inactive: 1.64.

On to B15, for which the enrichment score was inactive: 0.859.

For B16, the enrichment score is inactive: 0.728.

As for B17, the enrichment score is inactive: 0.687.

B18: the enrichment score is inactive: 1.01.

For another assay, the target named is SHP2 N-SH2 domain T42A. The assay is described as above. The conditions noted are these: peptide library: pTyr-Var.
In the case of B1, the enrichment score was inactive: 1.05.

In the case of B2, the enrichment score is inactive: 1.16.

For B3, the enrichment score was inactive: 0.581.

B4: the enrichment score is inactive: 0.62.

As for B5, the enrichment score is inactive: 1.19.

On to B6, for which the enrichment score is inactive: 0.527.

As for B7, the enrichment score is inactive: 0.494.

As to B8, the enrichment score is inactive: 0.577.

For the molecule B9, the enrichment score was inactive: 0.379.

B10: the enrichment score is inactive: 0.949.

With B11, the enrichment score is inactive: 0.707.

With B12, the enrichment score is inactive: 0.478.

B13: the enrichment score was inactive: 0.782.

For the molecule B14, the enrichment score is inactive: 1.78.

Turning to B15, the enrichment score is inactive: 0.602.

As for B16, the enrichment score was inactive: 0.533.

As to B17, the enrichment score was inactive: 0.559.

B18: the enrichment score was inactive: 0.523.

Another assay concerns the target SHP2 N-SH2 domain T52S. The description is as above. As to conditions: peptide library: pTyr-Var.
Turning to B1, the enrichment score was inactive: 0.708.

In the case of B2, the enrichment score was inactive: 0.96.

Turning to B3, the enrichment score is inactive: 0.525.

With B4, the enrichment score was inactive: 0.766.

B5: the enrichment score was inactive: 0.889.

Take B6: the enrichment score is inactive: 0.537.

In the case of B7, the enrichment score was inactive: 0.577.

Consider B8, for which the enrichment score is inactive: 0.574.

With B9, the enrichment score is inactive: 0.831.

For the molecule B10, the enrichment score was inactive: 0.837.

For the molecule B11, the enrichment score was inactive: 0.704.

For B12, the enrichment score is inactive: 0.569.

In the case of B13, the enrichment score is inactive: 0.766.

As for B14, the enrichment score is inactive: 1.52.

Regarding B15, the enrichment score was inactive: 0.739.

As to B16, the enrichment score is inactive: 0.878.

On to B17, for which the enrichment score was inactive: 0.668.

As for B18, the enrichment score is inactive: 0.612.

The target in a further assay is SHP2 N-SH2 domain wild-type. Described as above. The conditions noted are these: peptide library: pTyr-Var.
In the case of B1, the enrichment score is inactive: 1.33.

On to B2, for which the enrichment score was inactive: 1.1.

As for B3, the enrichment score is inactive: 0.788.

As to B4, the enrichment score was inactive: 0.675.

Turning to B5, the enrichment score is inactive: 1.07.

With B6, the enrichment score is inactive: 0.753.

For B7, the enrichment score is inactive: 0.694.

For the molecule B8, the enrichment score was inactive: 0.736.

In the case of B9, the enrichment score is inactive: 0.578.

For B10, the enrichment score is inactive: 1.08.

Take B11: the enrichment score was inactive: 0.721.

B12: the enrichment score is inactive: 0.401.

With B13, the enrichment score was inactive: 1.9.

Regarding B14, the enrichment score was inactive: 1.2.

As for B15, the enrichment score was inactive: 0.893.

As for B16, the enrichment score was inactive: 0.626.

B17: the enrichment score was inactive: 0.725.

With B18, the enrichment score is inactive: 0.772.
